According to patent publication US5242908A, “Use of benzylphosphonic acid derivatives for the treatment of diseases caused by viruses” (priority 1990, dated 1993):
Read-outs that look alike come from different tables or passages of the source.

Legend:
[1] = test system: Friend leukemia virus (FLV); type: in vivo, NMRI mice; details: once per day, 10 days
Influenza A2 = details: twice daily for 2.5 days; for Survivors: groups of 5 mice
[2] = test system: myxoviruses (influenza A2); experiment: microbe, parasite or virus in culture; details: read-out: Influenza A2 MIC (minimum inhibitory concentration)

Row | Compound | FLV Survival rate ([1]; ip 50 mg/kg) [%] | Relative spleen weight ([1]; ip 50 mg/kg) [%] | Average survival time (Influenza A2; po 0.25 mg/kg) [days] | Survivors (Influenza A2; po 0.25 mg/kg) | Average survival time (Influenza A2; po 2.5 mg/kg) [days] | Survivors (Influenza A2; po 2.5 mg/kg) | Survivors (Influenza A2; po 25 mg/kg) | Survivors (Influenza A2; sc 0.25 mg/kg) | Average survival time (Influenza A2; sc 2.5 mg/kg) [days] | Survivors (Influenza A2; sc 2.5 mg/kg) | Survivors (Influenza A2; sc 25 mg/kg) | MIC [2] [µg/mL] | FLV Survival rate ([1]; ip 10 mg/kg) [%] | Relative spleen weight ([1]; ip 10 mg/kg) [%] | FLV Survival rate ([1]; ip 30 mg/kg) [%] | Relative spleen weight ([1]; ip 30 mg/kg) [%] | Average survival time (Influenza A2; po 25 mg/kg) [days] | Average survival time (Influenza A2; sc 0.25 mg/kg) [days] | Average survival time (Influenza A2; sc 25 mg/kg) [days]
1 | CCCCOP(=O)(Cc1ccccc1C)OCCCC [M, di-n-butyl 2-methylbenzylphosphonate] | 90 | 7.46 | 7.0 | 4 | 7.0 | 4 | 5 | 5 | 7.0 | 3 | 5 |  |  |  |  |  |  |  | 
2 | Cc1ccccc1CP(=O)(O)O [O, di-triethylammonium 2-methylbenzylphosphonate] |  |  |  | 5 | 8.5 | 3 | 3 |  |  |  |  | 14.8 | 90 | 6.32 | 90 | 5.06 | 9.0 |  | 
3 | CCOP(=O)(Cc1ccccc1[N+](=O)[O-])OCC [U, Diethyl 2-nitrobenzylphosphonate] | 90 | 7.56 |  |  |  |  |  | 4 | 7.0 | 4 | 2 |  |  |  |  |  |  | 7.0 | 7.3
